Source: the supplement of paper PMC11417369
The list shows a part of the results.

Each sequence was assayed on PfSIP2 AP2 domain 1 (GST-tagged) (assay: gcPBM binding intensity (ln(normalized median fluorescence intensity)); higher = stronger DNA binding).
Method in brief: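 Probes on an Agilent 4 × 180k array were primer-extended, double-stranded and 36 bp long, taken from intergenic genomic regions, with negative controls added. GST-tagged P. falciparum DNA-binding domains from E. coli, about 25 μg on average, were applied to the array for 1 h in 1× PBS containing 1% milk, 0.2 mg/ml BSA, 0.5% salmon testes DNA and 0.03% Triton X-100. Binding intensity, obtained after Alexa488 anti-GST antibody detection and a 488 nm scan, is the highest Masliner-normalised natural-log median intensity across replicate spots of either probe orientation.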

How did the “gcPBM binding intensity (ln)” value turn out when “GTACATACATAAAACACACACATATATATATATATA [CACACA_site1826]” was run?
The value was 9.26.

How did the “gcPBM binding intensity (ln)” value turn out when “TTCTTTTCTTTTTTCTTTTTTTTTTTCTTTTCTTTT [GTGCAC_negctrl_site630]” was run?
The value was 6.55.

With “AAAAAAAAAAAAAAAACATGCAAAATAATATATATA [TGCATGCA_site68]” as the sequence, how does the “gcPBM binding intensity (ln)” value read?
The value was 7.44.

With “AGAAAAGGACATATATGTACTTATCAATATAGAAAC [XGTACX_site1042]” as the sequence, how does the “gcPBM binding intensity (ln)” value read?
Its value is 7.29.

“TCACATATGTTCCATTGTACTTGTAGTAATTTTTTC [XGTACX_site6473]” was tested. Which “gcPBM binding intensity (ln)” value did it give?
The value was 6.95.

Which “gcPBM binding intensity (ln)” value does the source give for “GTAATATGTATCCATACACACATACATTTTATTTGC [CACACA_site4640]” here?
The value was 7.11.

With “ATAAAATGAAATATATGTACGCATCACTTGTTGAAC [XGTACX_site4530]” as the sequence, how does the “gcPBM binding intensity (ln)” value read?
The value was 7.14.

For “TATATTTTACTCTTCACACATATACTCAATTTATAT [CACACA_site5357]”, which “gcPBM binding intensity (ln)” value is on record?
Its value is 7.08.

Which “gcPBM binding intensity (ln)” value does the source give for “AAAAGAAAAAGAAAAACACACATAAATATAAATATA [CACACA_site1879]” here?
Its value is 6.57.

Which “gcPBM binding intensity (ln)” value does the source give for “CATATTTGGAAACACACACACATATTTATATATATA [CACACA_site3569]” here?
Its value is 7.95.

With “AAAATTTTCTTTTTATGTACACATAATTTTACCGGA [XGTACX_site5276]” as the sequence, how does the “gcPBM binding intensity (ln)” value read?
Its value is 6.92.

How did the “gcPBM binding intensity (ln)” value turn out when “AAAACAATAATATACTGTACATATATATAATAACAT [XGTACX_site6188]” was run?
Its value is 7.13.

Which “gcPBM binding intensity (ln)” value does the source give for “AAATTCAGGTTATATTTTAATTTTTTTTTGTTTTTT [CACACA_negctrl_site924]” here?
Its value is 6.5.

How did the “gcPBM binding intensity (ln)” value turn out when “CATACACATACACATACACACGCATAGAAACATACG [CACACA_site8666]” was run?
Its value is 7.47.

How did the “gcPBM binding intensity (ln)” value turn out when “AATTTTTCATCAAGTTGTACAATTATTTGTTTGTTT [XGTACX_site3113]” was run?
The value was 6.85.

With “CAATATTTTTTATAGGGTACAAAAGATAAAAAAAAA [XGTACX_site6298]” as the sequence, how does the “gcPBM binding intensity (ln)” value read?
Its value is 7.05.

Which “gcPBM binding intensity (ln)” value does the source give for “ACAATTTATATTATATGTACTTAAAAAGTTCGTAAA [XGTACX_site6421]” here?
The value was 7.02.

How did the “gcPBM binding intensity (ln)” value turn out when “TTTTATACATAAATATGTACGTATATATAATGAATT [XGTACX_site1337]” was run?
Its value is 7.01.

Which “gcPBM binding intensity (ln)” value does the source give for “GCCTCATCGTAGCAGTGTACGTTTTTTTTTTTTTTT [XGTACX_site8648]” here?
Its value is 7.74.

How did the “gcPBM binding intensity (ln)” value turn out when “ATAACAACCCAATGTTGTACATTTAAATATAACGTA [XGTACX_site7114]” was run?
The value was 6.93.

TTCTAAAATTATATAGTGCAATTATATTAATTTTTC was tested. Which “gcPBM binding intensity (ln)” value did it give?
The value was 8.03.

“TATAACATATGACACACACACATACATACACAAAAA [CACACA_site6935]” was tested. Which “gcPBM binding intensity (ln)” value did it give?
The value was 7.39.

With “TATATATATTTATGTACACACACACCGATAAATAAA [CACACA_site4404]” as the sequence, how does the “gcPBM binding intensity (ln)” value read?
The value was 7.6.

“TTACGCGCTTATTACACACACATACAAATAAGGATT [CACACA_site3486]” was tested. Which “gcPBM binding intensity (ln)” value did it give?
The value was 7.04.

“AAAAATAAAAAAAATACATGCAATGAAACATTTATT [TGCATGCA_site263]” was tested. Which “gcPBM binding intensity (ln)” value did it give?
The value was 6.58.

For “ATTTGTATTGTATATGCACACATAGAACACTTTTTT [CACACA_site9373]”, which “gcPBM binding intensity (ln)” value is on record?
The value was 7.18.

With “AACAAAATAAAAAAAACATGCAAGAATTCTTATATG [TGCATGCA_site714]” as the sequence, how does the “gcPBM binding intensity (ln)” value read?
The value was 6.63.

For “TTGTGTTTGAAAAAATGTACATGTGTCTTACAACAA [XGTACX_site8371]”, which “gcPBM binding intensity (ln)” value is on record?
The value was 6.95.

With “TTATACAGATATTTAACACACATTTTATAAAGTGCC [CACACA_site4851]” as the sequence, how does the “gcPBM binding intensity (ln)” value read?
Its value is 6.87.

Which “gcPBM binding intensity (ln)” value does the source give for “ATAAATGACAGACACACACACAAAAAAAAAAAACAA [CACACA_site2626]” here?
Its value is 7.12.

“ACCCTATCTGTAACTACACACCGCATATTGTTTACT [CACACA_site5661]” was tested. Which “gcPBM binding intensity (ln)” value did it give?
The value was 7.32.

How did the “gcPBM binding intensity (ln)” value turn out when “AAATATTTATATGTTACACACTGTTTATAACTTTCT [CACACA_site6752]” was run?
Its value is 6.65.

Which “gcPBM binding intensity (ln)” value does the source give for “TTTTTATCTTTGCTGTGTACATAAATAAAAATAACT [XGTACX_site7625]” here?
The value was 7.64.

With “CTTCTGTAATTATCACGTACATATAATAATTAAAAT [XGTACX_site8973]” as the sequence, how does the “gcPBM binding intensity (ln)” value read?
Its value is 7.34.

With “TTTTTTTTGATAAGTTGTACAATGATATATATCCCT [XGTACX_site3560]” as the sequence, how does the “gcPBM binding intensity (ln)” value read?
The value was 7.12.

How did the “gcPBM binding intensity (ln)” value turn out when “ATAGTTTAATTTATATGTACATATAATATTGATTTG [XGTACX_site7520]” was run?
The value was 7.29.

Which “gcPBM binding intensity (ln)” value does the source give for “TATATTTTATATTGGTGTACAATTTTTTTTTTTTTT [XGTACX_site4291]” here?
The value was 7.12.

How did the “gcPBM binding intensity (ln)” value turn out when “CCTTTTTTTTTTTTATGTACTAAAATAAAATTAGAA [XGTACX_site5956]” was run?
Its value is 7.19.

For “TTTTTTTTGTGTATTTGTACATAATATATATATATA [XGTACX_site7092]”, which “gcPBM binding intensity (ln)” value is on record?
Its value is 8.79.

For “TAATACCATTGTCATGCATGCACATTATTACTCTAA [TGCATGCA_site160]”, which “gcPBM binding intensity (ln)” value is on record?
Its value is 7.38.

With “TCGTAATTTTTTTTTATATATTAGGAATTTATAAAA [XGTACX_negctrl_site409]” as the sequence, how does the “gcPBM binding intensity (ln)” value read?
The value was 6.92.

Which “gcPBM binding intensity (ln)” value does the source give for “ATATTATATTTCTTTTGTACATATTATATAATATAT [XGTACX_site7198]” here?
Its value is 7.24.

How did the “gcPBM binding intensity (ln)” value turn out when “AAAAGGTATGTTATACATAGATATGCACATATATGT [TGCATGCA_negctrl_site96]” was run?
Its value is 9.51.

For “GTAGGATTTTCTTTTGTGCGCAATATAAAAAGAAAA [GTGCAC_site9514]”, which “gcPBM binding intensity (ln)” value is on record?
Its value is 7.48.

“ATTAATATAAAAAGGTAAATGGATGTAATATATATA [XGTACX_negctrl_site2]” was tested. Which “gcPBM binding intensity (ln)” value did it give?
Its value is 7.72.
